The other results are listed elsewhere or left out. No stated cut-off is given here; in the data, active = 3.2 or more and inactive = the rest. Only a few entries rise above the background.
These binders were tested against SHP2 C-SH2 domain E139D (assay: enrichment score (SH2-bound / input frequency) (ratio); bacterial display of known human phosphotyrosine sites (pTyr-Var adds point mutants) read by sequencing; higher = stronger binding; tyrosines were phosphorylated by kinases first). Conditions: peptide library: pTyr-Var.
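Further: displayed peptides selected on beads carrying the immobilized SH2 domain, with library peptides lacking any tyrosine serving as negative controls.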

Enrichment score, inactive:
HFMKLYEEKTG [PARP1_Y618] 1.21
RTCSSYAIEKI [PARP15_Y520] 1.04
RTCSSYTIEKI [PARP15_Y520_A521T] 0.532
EDASEYFENYI [PARP4_Y214] 0.463
EDASEYYENYI [PARP4_Y214_F215Y] 0.65
EFFENYIEELK [PARP4_Y218_F215Y_YF] 1.14
YHLLPYTVRAM [PARS2_Y93] 2.23
YHLLPYTIRAM [PARS2_Y93_V95I] 1.86
EASGIYVKSVI [PATJ_Y396_I400V] 0.689
KILGRYYETGS [PAX2_Y72] 1.57
KILGRYYETSS [PAX2_Y72_G76S] 1.23
KIPGRYFETGS [PAX2_Y72_L69P_YF] 1.14
KILGTYYETGS [PAX2_Y72_R71T] 0.823
IPGRYYETGSI [PAX2_Y73_L69P] 0.974
ILGTYYETGSI [PAX2_Y73_R71T] 1.33
ILGTFYETGSI [PAX2_Y73_R71T_YF] 1.02
SAGSSYSISSI [PAX5_Y179_G183S] 0.843
SAGSSYSISVI [PAX5_Y179_G183V] 0.701
PGPQSYPIVTG [PAX5_Y299] 0.593

What follows are binders tested against SHP2 C-SH2 domain wild-type in the same assay as above. Conditions: peptide library: pTyr-Var.

Enrichment score, inactive:
HFMKLYEEKTG [PARP1_Y618] 1.31
RTCSSYAIEKI [PARP15_Y520] 1.11
RTCSSYTIEKI [PARP15_Y520_A521T] 1.05
EDASEYFENYI [PARP4_Y214] 0.517
EDASEYYENYI [PARP4_Y214_F215Y] 0.531
EFFENYIEELK [PARP4_Y218_F215Y_YF] 0.919
YHLLPYTVRAM [PARS2_Y93] 2.31
YHLLPYTIRAM [PARS2_Y93_V95I] 2.19
EASGIYVKSVI [PATJ_Y396_I400V] 0.64
KILGRYYETGS [PAX2_Y72] 1.03
KILGRYYETSS [PAX2_Y72_G76S] 0.891
KIPGRYFETGS [PAX2_Y72_L69P_YF] 0.958
KILGTYYETGS [PAX2_Y72_R71T] 0.909
IPGRYYETGSI [PAX2_Y73_L69P] 1.04
ILGTYYETGSI [PAX2_Y73_R71T] 1.13
ILGTFYETGSI [PAX2_Y73_R71T_YF] 0.88
SAGSSYSISSI [PAX5_Y179_G183S] 0.855
SAGSSYSISVI [PAX5_Y179_G183V] 0.617
PGPQSYPIVTG [PAX5_Y299] 0.58

What follows are binders tested against SHP2 N-SH2 domain L43F in the same assay as above. Conditions: peptide library: pTyr-Var.

Enrichment score, inactive:
HFMKLYEEKTG [PARP1_Y618] 1.34
RTCSSYAIEKI [PARP15_Y520] 0.811
RTCSSYTIEKI [PARP15_Y520_A521T] 0.861
EDASEYFENYI [PARP4_Y214] 0.485
EDASEYYENYI [PARP4_Y214_F215Y] 0.523
EFFENYIEELK [PARP4_Y218_F215Y_YF] 1.04
YHLLPYTVRAM [PARS2_Y93] 1.99
YHLLPYTIRAM [PARS2_Y93_V95I] 2.24
EASGIYVKSVI [PATJ_Y396_I400V] 0.815
KILGRYYETGS [PAX2_Y72] 1.23
KILGRYYETSS [PAX2_Y72_G76S] 1.07
KIPGRYFETGS [PAX2_Y72_L69P_YF] 0.771
KILGTYYETGS [PAX2_Y72_R71T] 0.77
IPGRYYETGSI [PAX2_Y73_L69P] 1.12
ILGTYYETGSI [PAX2_Y73_R71T] 0.81
ILGTFYETGSI [PAX2_Y73_R71T_YF] 0.866
SAGSSYSISSI [PAX5_Y179_G183S] 0.776
SAGSSYSISVI [PAX5_Y179_G183V] 0.716
PGPQSYPIVTG [PAX5_Y299] 0.768

Each binder was assayed against SHP2 N-SH2 domain T42A in the same assay as above. Conditions: peptide library: pTyr-Var.

Enrichment score, inactive:
HFMKLYEEKTG [PARP1_Y618] 0.913
RTCSSYAIEKI [PARP15_Y520] 0.671
RTCSSYTIEKI [PARP15_Y520_A521T] 0.647
EDASEYFENYI [PARP4_Y214] 0.479
EDASEYYENYI [PARP4_Y214_F215Y] 0.509
EFFENYIEELK [PARP4_Y218_F215Y_YF] 1.12
YHLLPYTVRAM [PARS2_Y93] 1.82
YHLLPYTIRAM [PARS2_Y93_V95I] 1.89
EASGIYVKSVI [PATJ_Y396_I400V] 0.554
KILGRYYETGS [PAX2_Y72] 1.3
KILGRYYETSS [PAX2_Y72_G76S] 0.935
KIPGRYFETGS [PAX2_Y72_L69P_YF] 1.14
KILGTYYETGS [PAX2_Y72_R71T] 0.646
IPGRYYETGSI [PAX2_Y73_L69P] 0.841
ILGTYYETGSI [PAX2_Y73_R71T] 1.29
ILGTFYETGSI [PAX2_Y73_R71T_YF] 0.69
SAGSSYSISSI [PAX5_Y179_G183S] 0.704
SAGSSYSISVI [PAX5_Y179_G183V] 0.601
PGPQSYPIVTG [PAX5_Y299] 0.613

Each binder was assayed against SHP2 N-SH2 domain T52S in the same assay as above. Conditions: peptide library: pTyr-Var.

Enrichment score, inactive:
HFMKLYEEKTG [PARP1_Y618] 1.2
RTCSSYAIEKI [PARP15_Y520] 0.846
RTCSSYTIEKI [PARP15_Y520_A521T] 0.386
EDASEYFENYI [PARP4_Y214] 0.633
EDASEYYENYI [PARP4_Y214_F215Y] 0.576
EFFENYIEELK [PARP4_Y218_F215Y_YF] 0.996
YHLLPYTVRAM [PARS2_Y93] 2.09
YHLLPYTIRAM [PARS2_Y93_V95I] 1.97
EASGIYVKSVI [PATJ_Y396_I400V] 0.799
KILGRYYETGS [PAX2_Y72] 1.26
KILGRYYETSS [PAX2_Y72_G76S] 1.22
KIPGRYFETGS [PAX2_Y72_L69P_YF] 0.934
KILGTYYETGS [PAX2_Y72_R71T] 0.912
IPGRYYETGSI [PAX2_Y73_L69P] 1.04
ILGTYYETGSI [PAX2_Y73_R71T] 1.27
ILGTFYETGSI [PAX2_Y73_R71T_YF] 0.877
SAGSSYSISSI [PAX5_Y179_G183S] 0.822
SAGSSYSISVI [PAX5_Y179_G183V] 0.565
PGPQSYPIVTG [PAX5_Y299] 0.528

The binders below were run against SHP2 N-SH2 domain wild-type in the same assay as above. Conditions: peptide library: pTyr-Var.

Enrichment score, inactive:
HFMKLYEEKTG [PARP1_Y618] 1.38
RTCSSYAIEKI [PARP15_Y520] 0.916
RTCSSYTIEKI [PARP15_Y520_A521T] 0.904
EDASEYFENYI [PARP4_Y214] 0.437
EDASEYYENYI [PARP4_Y214_F215Y] 0.547
EFFENYIEELK [PARP4_Y218_F215Y_YF] 1.19
YHLLPYTVRAM [PARS2_Y93] 1.65
YHLLPYTIRAM [PARS2_Y93_V95I] 1.87
EASGIYVKSVI [PATJ_Y396_I400V] 0.866
KILGRYYETGS [PAX2_Y72] 1.56
KILGRYYETSS [PAX2_Y72_G76S] 1.22
KIPGRYFETGS [PAX2_Y72_L69P_YF] 0.724
KILGTYYETGS [PAX2_Y72_R71T] 0.879
IPGRYYETGSI [PAX2_Y73_L69P] 1.01
ILGTYYETGSI [PAX2_Y73_R71T] 1.18
ILGTFYETGSI [PAX2_Y73_R71T_YF] 0.906
SAGSSYSISSI [PAX5_Y179_G183S] 0.927
SAGSSYSISVI [PAX5_Y179_G183V] 0.504
PGPQSYPIVTG [PAX5_Y299] 0.739
